Results from the supplement of paper PMC4604168 (melanoma cell lines).
This is one part of the list. Single values are uncertain, as repeats are few or missing.

Tests used:
Assay in all cases: cell count relative to DMSO control; melanoma cells; higher = more viable cells
Settings in all cases: library dose: low library concentration; 72 h
MZ2-MEL = test system: MZ2-MEL
MeWo = test system: MeWo
RPMI7951 = test system: RPMI7951
RVH-421 = test system: RVH-421
SkMel28 = test system: SkMel28
SkMel2 = test system: SkMel2
SkMel30 = test system: SkMel30
SkMel5 = test system: SkMel5
UACC257 = test system: UACC257
UACC62 = test system: UACC62
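Note: cell number obtained by counting DAPI-stained nuclei in high-throughput microscope images with image analysis software, screen run in 1,536-well plates.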

Structure (SMILES) | cell count (MZ2-MEL) [%] | cell count (MeWo) [%] | cell count (RPMI7951) [%] | cell count (RVH-421) [%] | cell count (SkMel28) [%] | cell count (SkMel2) [%] | cell count (SkMel30) [%] | cell count (SkMel5) [%] | cell count (UACC257) [%] | cell count (UACC62) [%]
CC(=O)O[C@@]12CO[C@@H]1C[C@H](O)[C@@]1(C)C(=O)[C@H](O)C3=C(C)[C@@H](OC(=O)[C@H](O)[C@@H](NC(=O)OC(C)(C)C)c4ccccc4)C[C@@](O)([C@@H](OC(=O)c4ccccc4)[C@H]21)C3(C)C [Docetaxel] + Cc1ccc(NC(=O)c2cccc(N(C)C)c2)cc1NC(=O)c1ccc(O)cc1 [ZM336372] (first compound 0.0001 µM, partner dose 2 µM) | 46 | 39.5 | 41.8 | 78.2 | 50.1 | 54.2 | 28.7 | 87.3 | 48.7 | 40
Nc1nc(F)nc2c1ncn2[C@@H]1O[C@H](CO)[C@@H](O)[C@@H]1O [fludarabine] + COc1cc2c(Oc3ccc4[nH]c(C)cc4c3F)ncnc2cc1OCCCN1CCCC1 [cediranib] (first compound 0.2 µM, partner dose 0.4 µM) | 98.5 | 32.9 | 86 | 84.7 | 75.1 | 4.63 | 16.5 | 51.6 | 118 | 78.1
CC(=O)O[C@@]12CO[C@@H]1C[C@H](O)[C@@]1(C)C(=O)[C@H](O)C3=C(C)[C@@H](OC(=O)[C@H](O)[C@@H](NC(=O)OC(C)(C)C)c4ccccc4)C[C@@](O)([C@@H](OC(=O)c4ccccc4)[C@H]21)C3(C)C [Docetaxel] + COc1ccc(COc2ccc(Cc3cnc(N)nc3N)cc2OC)cc1 [GW2580] (first compound 0.0001 µM, partner dose 1 µM) | 51.7 | 37.2 | 41.8 | 64.8 | 37.6 | 33.8 | 26.6 | 58.2 | 33.6 | 42.6
Nc1ncn([C@H]2C[C@H](O)[C@@H](CO)O2)c(=O)n1 [decitabine] + O=C1NC(=O)/C(=C/c2ccc(-c3ccc(F)cc3O)o2)S1 [AS252424] (first compound 0.1 µM, partner dose 1 µM) | 84.2 | 88.7 | 82 | 85.7 | 74.6 | 91.7 | 79.4 | 107 | 111 | 65.1
Nc1ncn([C@H]2C[C@H](O)[C@@H](CO)O2)c(=O)n1 [decitabine] + Cc1cc(N2CCOCC2)cc2[nH]c(-c3c(NC[C@@H](O)c4cccc(Cl)c4)cc[nH]c3=O)nc12 [BMS536924] (first compound 0.1 µM, partner dose 0.2 µM) | 95 | 99 | 92 | 99.9 | 94.9 | 99 | 98.4 | 91.6 | 92.5 | 87
CC(=O)O[C@@]12CO[C@@H]1C[C@H](O)[C@@]1(C)C(=O)[C@H](O)C3=C(C)[C@@H](OC(=O)[C@H](O)[C@@H](NC(=O)OC(C)(C)C)c4ccccc4)C[C@@](O)([C@@H](OC(=O)c4ccccc4)[C@H]21)C3(C)C [Docetaxel] + NC(=O)Nc1cc(-c2cccc(F)c2)sc1C(=O)N[C@H]1CCCNC1 [AZD7762] (first compound 0.0001 µM, partner dose 0.02 µM) | 50.4 | 44.8 | 36 | 84.4 | 39.2 | 43.4 | 28.2 | 84.3 | 53.6 | 48.1
CC(=O)O[C@@]12CO[C@@H]1C[C@H](O)[C@@]1(C)C(=O)[C@H](O)C3=C(C)[C@@H](OC(=O)[C@H](O)[C@@H](NC(=O)OC(C)(C)C)c4ccccc4)C[C@@](O)([C@@H](OC(=O)c4ccccc4)[C@H]21)C3(C)C [Docetaxel] + COc1cc2c(Oc3ccc4[nH]c(C)cc4c3F)ncnc2cc1OCCCN1CCCC1 [cediranib] (first compound 0.0001 µM, partner dose 0.4 µM) | 53.3 | 46.8 | 37.6 | 66.3 | 29.4 | 45.8 | 34.9 | 83.5 | 40.3 | 45.9
CC(=O)O[C@@]12CO[C@@H]1C[C@H](O)[C@@]1(C)C(=O)[C@H](O)C3=C(C)[C@@H](OC(=O)[C@H](O)[C@@H](NC(=O)OC(C)(C)C)c4ccccc4)C[C@@](O)([C@@H](OC(=O)c4ccccc4)[C@H]21)C3(C)C [Docetaxel] + O=C(O)c1ccc(-c2c[nH]c3ncc(-c4ccccc4)cc23)cc1C1CCCC1 [GSK650394] (first compound 0.0001 µM, partner dose 0.16 µM) | 46.8 | 42 | 35 | 62.8 | 29.5 | 42.6 | 35.1 | 86.2 | 37 | 42.5
Nc1ccn([C@@H]2O[C@H](CO)[C@@H](O)C2(F)F)c(=O)n1 [gemcitabine] + Oc1cc(-c2nc(-c3ccccc3)[nH]c2-c2ccncc2)ccc1Cl [L779450] (first compound 0.0004 µM, partner dose 0.2 µM) | 78.4 | 99.4 | 81.2 | 106 | 81.7 | 96.1 | 105 | 114 | 108 | 85.8
Nc1ccn([C@@H]2O[C@H](CO)[C@@H](O)C2(F)F)c(=O)n1 [gemcitabine] + COc1ccc(-c2ccc3c(N4CCOCC4)nc(N4C[C@@H](C)O[C@@H](C)C4)nc3n2)cc1CO [KU0063794] (first compound 0.0004 µM, partner dose 0.02 µM) | 88.8 | 93.2 | 81.7 | 94.7 | 110 | 102 | 95.1 | 102 | 96.7 | 105
Nc1ccn([C@@H]2O[C@H](CO)[C@@H](O)C2(F)F)c(=O)n1 [gemcitabine] + CO[C@@H]1[C@H](N(C)C(=O)c2ccccc2)C[C@H]2O[C@]1(C)n1c3ccccc3c3c4c(c5c6ccccc6n2c5c31)C(=O)NC4 [Midostaurin] (first compound 0.0004 µM, partner dose 0.08 µM) | 103 | 90 | 88.5 | 118 | 104 | 92.5 | 123 | 99.4 | 77.2 | 99.8
Nc1nc(F)nc2c1ncn2[C@@H]1O[C@H](CO)[C@@H](O)[C@@H]1O [fludarabine] + CC1(C)NC(=O)N(c2ccc([N+](=O)[O-])c(C(F)(F)F)c2)C1=O [nilutamide] (first compound 0.2 µM, partner dose 1 µM) | 102 | 36.1 | 91.6 | 109 | 73.1 | 8.3 | 16.5 | 50.7 | 85.7 | 79
Nc1nc(F)nc2c1ncn2[C@@H]1O[C@H](CO)[C@@H](O)[C@@H]1O [fludarabine] + O=C(CCCCCCC(=O)Nc1ccccc1)NO [vorinostat] (first compound 0.2 µM, partner dose 0.08 µM) | 100 | 29.1 | 103 | 101 | 55.9 | 5.66 | 14.2 | 39.6 | 73.1 | 83
Nc1ncn([C@H]2C[C@H](O)[C@@H](CO)O2)c(=O)n1 [decitabine] + COc1cc(Nc2ncc(F)c(Nc3ccc4c(n3)NC(=O)C(C)(C)O4)n2)cc(OC)c1OC [Tamatinib] (first compound 0.1 µM, partner dose 0.4 µM) | 84.9 | 93.7 | 70.1 | 97.3 | 81.7 | 99.4 | 98.6 | 87.6 | 45.9 | 60.3
Nc1ncn([C@H]2C[C@H](O)[C@@H](CO)O2)c(=O)n1 [decitabine] + CC(C)(C)c1cnc(CSc2cnc(NC(=O)C3CCNCC3)s2)o1 [SNS-032] (first compound 0.1 µM, partner dose 0.01 µM) | 87.5 | 91.7 | 94 | 86.9 | 73 | 95.9 | 96.5 | 98.9 | 61.5 | 85.1
Nc1ccn([C@@H]2O[C@H](CO)[C@@H](O)C2(F)F)c(=O)n1 [gemcitabine] + OCCn1cc(-c2cnc3nnn(Cc4ccc5ncccc5c4)c3n2)cn1 [PF04217903] (first compound 0.0004 µM, partner dose 1 µM) | 88.6 | 100 | 76.6 | 74.6 | 95 | 101 | 98.5 | 103 | 103 | 90
Nc1ccn([C@@H]2O[C@H](CO)[C@@H](O)C2(F)F)c(=O)n1 [gemcitabine] + CCCCCCCCCCCC1=C(O)C(=O)C=C(O)C1=O [Embelin] (first compound 0.0004 µM, partner dose 1.2 µM) | 97.2 | 97.3 | 85.1 | 77.6 | 108 | 102 | 122 | 94.3 | 106 | 101
CC(=O)c1c(C)c2cnc(Nc3ccc(N4CCNCC4)cn3)nc2n(C2CCCC2)c1=O [palbociclib] + CC(C)CCN1c2nc(Nc3cc(F)c(O)c(F)c3)ncc2N(C)C(=O)C1C [BID1870] (first compound 0.04 µM, partner dose 0.2 µM) | 79.6 | 71.6 | 81.7 | 65.5 | 57.2 | 71.7 | 65.7 | 78.3 | 60.2 | 74.4
